# Values joined by “and” are separate entries in the source; they are usually repeats but may differ in a detail not shown here. Equal entries are not always repeated. Structures can show the parent of a compound that is named as a salt. About 620 (11%) of roughly 5,800 compounds showed activity.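 The calls were made as follows: active = score above a cut-off or among the top three wells of a plate; in these data no inactive exceeds 0.85.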 The list shows a part of the results, in another mix than the full data.
# Tested on: primary human hepatic stellate cells (donor 1)
# Assay: scaled lipid accumulation score (0 = DMSO-like, 1 = nortriptyline-like); higher = stronger HSC inactivation (lipid re-accumulation), active = hit call of the paper
# Details: 48 h
# Method: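 Primary lipid accumulation screen in primary human hepatic stellate cell myofibroblasts (donor 1, passage 8) in 384-well plates. 100 nL of library compound was pin-transferred into 30 µL medium in duplicate, and cells were treated for 48 h. The 'Scaled' score combines distance from plate baseline, toxicity and reproducibility penalties, and is normalised to nortriptyline (positive) and DMSO (negative) controls on each plate. A hit is defined as scaled >0.85 or among the top 3 wells per plate.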
# [1] = library stock concentration: 80 uM
# [2] = library stock concentration: 400 uM
# [3] = library stock concentration: 2 mM
# [4] = library stock concentration: 10 mM
# [5] = library stock concentration: 3.33 mM
# [6] = library stock concentration: 1 mM
# [7] = library stock concentration: 5.3 mM
smiles,measurement,setting,value
Fc1cc(-c2ccnc(Nc3ccc(-n4cnc(N5CCOCC5)n4)cc3)n2)cc(N2CCOCC2)c1,scaled lipid accumulation score,[1],inactive: 0.394
same,scaled lipid accumulation score,[2],inactive: 0.734
same,scaled lipid accumulation score,[3],inactive: 0.178
same,scaled lipid accumulation score,[4],inactive: 0.442
CS(=O)(=O)c1cccc(CNc2nc(Nc3ccc4c(c3)CCC(=O)N4)ncc2C(F)(F)F)c1,scaled lipid accumulation score,[1],inactive: ≤ -0.016
same,scaled lipid accumulation score,[2],inactive: 0.003
same,scaled lipid accumulation score,[3],inactive: ≤ -0.016
same,scaled lipid accumulation score,[5],inactive: ≤ 0
same,scaled lipid accumulation score,[4],inactive: ≤ 0 and inactive: 0.58 and inactive: 0.381
CC1(C)CCC(CN2CCN(c3ccc(C(=O)NS(=O)(=O)c4ccc(NCC5CCOCC5)c([N+](=O)[O-])c4)c(Oc4cnc5[nH]ccc5c4)c3)CC2)=C(c2ccc(Cl)cc2)C1,scaled lipid accumulation score,[5],inactive: ≤ -0.009
same,scaled lipid accumulation score,[4],inactive: ≤ 0
CC(C)(C)n1nc(-c2ccc(Cl)cc2)c2c(N)ncnc21,scaled lipid accumulation score,[5],inactive: ≤ 0
same,scaled lipid accumulation score,[4],inactive: 0.101
CCCCCCCCCCC[C@@H](C[C@@H]1OC(=O)[C@H]1CCCCCC)OC(=O)[C@H](CC(C)C)NC=O,scaled lipid accumulation score,[4],inactive: 0.473
CCCCCCCCCCC[C@@H](C[C@@H]1OC(=O)[C@H]1CCCCCC)OC(=O)[C@H](CC(C)C)NC=O [Orlistat],scaled lipid accumulation score,[5],inactive: 0.229
same,scaled lipid accumulation score,library stock concentration: 4 mM,inactive: 0.263
same,scaled lipid accumulation score,[4],inactive: 0.296 and inactive: 0.642 and inactive: 0.506
S=C(Nc1ccccc1)Nc1nccs1 [1-Phenyl-3-(2-thiazolyl)-2-thiourea],scaled lipid accumulation score,[4],inactive: ≤ -0.055
COCCOc1cc2nc[nH]c(=O)c2cc1OCCOC,scaled lipid accumulation score,[4],inactive: 0.018
O=C1O[C@H](CO)[C@@H](O)[C@H](O)[C@H]1O [Gluconolactone],scaled lipid accumulation score,[4],inactive: ≤ -0.007
CCCCC[C@H](O)/C=C/[C@@H]1[C@@H](C/C=C\CCCC(=O)NCCO)[C@@H](O)C[C@H]1O [Prostaglandin F2.alpha. Ethanolamide],scaled lipid accumulation score,[6],inactive: ≤ 0
Cc1cc(Nc2ncnc3ccc(-c4ccc(CNCCS(C)(=O)=O)o4)cc23)ccc1Oc1ccn2ncnc2c1 [HER2-Inhibitor-1],scaled lipid accumulation score,[4],active: 0.977
CSc1ccc(C(=O)c2[nH]c(=O)[nH]c2C)cc1 [Enoximone],scaled lipid accumulation score,[4],inactive: 0.125
CCC(=O)OCC(=O)[C@@]1(OC(=O)CC)[C@H](C)CC2C3C([C@@H](O)C[C@@]21C)[C@@]1(C)C=CC(=O)C=C1C[C@H]3Cl (stereo not given in full),scaled lipid accumulation score,[4],inactive: 0.055
O=C(O)C1CSCN1 (stereo not given),scaled lipid accumulation score,[4],inactive: ≤ 0
CC(C)(S)[C@@H](N)C(=O)O [Penicillamine],scaled lipid accumulation score,[4],inactive: ≤ 0
same,scaled lipid accumulation score,library stock concentration: 13.4 mM,inactive: 0.272
CO[C@H]1C[C@H](O[C@H]2[C@H](C)[C@@H](O[C@@H]3O[C@H](C)C[C@H](N(C)C)[C@H]3OC(C)=O)[C@@H](C)C[C@@]3(CO3)C(=O)[C@H](C)[C@@H](OC(C)=O)[C@@H](C)[C@@H](C)OC(=O)[C@@H]2C)O[C@@H](C)[C@@H]1OC(C)=O [Troleandomycin],scaled lipid accumulation score,,inactive: ≤ 0
same,scaled lipid accumulation score,[4],inactive: ≤ 0
COc1ccc(-c2ccc(=N)n(CCCC(=O)O)n2)cc1,scaled lipid accumulation score,[4],inactive: ≤ 0 and inactive: ≤ -0.002
COc1ccc(-c2ccc(=N)n(CCCC(=O)O)n2)cc1 [Gabazine],scaled lipid accumulation score,,inactive: 0.002
Cc1cc(C(=O)NNCc2ccccc2)no1 [Isocarboxazid],scaled lipid accumulation score,,inactive: ≤ 0
COc1ccc(C(=O)Nc2sc3c(c2C(N)=O)CCCC3)cc1OC,scaled lipid accumulation score,[5],inactive: 0.765
same,scaled lipid accumulation score,[4],inactive: 0.808 and inactive: 0.676
N[C@@H](Cn1ccc(=O)c(O)c1)C(=O)O [L-Mimosine from Koa hoale seeds],scaled lipid accumulation score,[4],inactive: ≤ 0
COC(=O)[C@H](Cc1ccccc1)NC(=O)/C=C/c1ccc(O)cc1,scaled lipid accumulation score,[6],inactive: 0.011
CN(C)CC/C=C1\c2ccccc2CSc2ccccc21 [Dosulepin hydrochloride],scaled lipid accumulation score,,inactive: 0.845
CC(=O)NO [Acetohydroxamic acid],scaled lipid accumulation score,[4],inactive: ≤ 0
O=NO [Sodium Nitrite],scaled lipid accumulation score,[5],inactive: ≤ 0
same,scaled lipid accumulation score,[4],inactive: ≤ -0.001
CC(C)(Oc1ccc(Cl)cc1)C(=O)O [Clofibric acid],scaled lipid accumulation score,,inactive: ≤ 0
same,scaled lipid accumulation score,[4],inactive: ≤ 0
CC(C)(Oc1ccc(Cl)cc1)C(=O)O [Clofibric Acid],scaled lipid accumulation score,[5],inactive: ≤ 0
same,scaled lipid accumulation score,[4],inactive: ≤ -0.001
CN1CCCN=C1COC(=O)C(O)(c1ccccc1)C1CCCCC1 (stereo not given) [Oxyphencyclimine hydrochloride],scaled lipid accumulation score,[7],inactive: ≤ 0
same,scaled lipid accumulation score,[4],inactive: 0.458
"CCCCc1c(-c2ccc(OC)cc2)[nH]c2nccnc12 [Aloisine, RP106]",scaled lipid accumulation score,[5],inactive: 0.036
CC(=O)c1cnc2ccc(-c3cc(Cl)c(O)c(Cl)c3)nc2c1N[C@H]1CC[C@H](CN(C)C)CC1.Cl,scaled lipid accumulation score,[4],active: 0.872
COc1cc2ncc(-c3ccccc3)nc2cc1OC,scaled lipid accumulation score,[5],inactive: ≤ 0
same,scaled lipid accumulation score,library stock concentration: 18.8 mM,inactive: 0.096
COc1cc2ncc(-c3ccccc3)nc2cc1OC [Tyrphostin AG 1296],scaled lipid accumulation score,[5],inactive: ≤ -0.009
same,scaled lipid accumulation score,[4],inactive: ≤ 0
CCC[C@H](Nc1nc(-c2ccc(NC(=O)NCC)c(OC)c2)ncc1C)c1cccnc1 [CYT997 (Lexibulin)],scaled lipid accumulation score,[5],inactive: 0.682
same,scaled lipid accumulation score,[4],inactive: 0.758
COC1C(O)CC(=O)OC(C)CC=CC=CC(OC2CCC(N(C)C)C(C)O2)C(C)CC(CC=O)C1OC1OC(C)C(OC2CC(C)(O)C(O)C(C)O2)C(N(C)C)C1O (stereo not given) [Spiramycin],scaled lipid accumulation score,[5],inactive: ≤ 0
same,scaled lipid accumulation score,[4],inactive: 0.344
CCCCC[C@H](O)/C=C/[C@H]1[C@H](O)CC(=O)[C@@H]1C/C=C\CCCC(=O)NCCO [Prostaglandin E2 Ethanolamide],scaled lipid accumulation score,[6],inactive: ≤ 0
CCCCCCCCCC(=O)NC(CN1CCOCC1)C(O)c1ccccc1 (racemic),scaled lipid accumulation score,[6],inactive: ≤ -0.021
CN1CCc2ccccc2Cc2[nH]c3ccccc3c2CC1,scaled lipid accumulation score,[4],inactive: 0.244
CC(C)(Sc1cc(C(C)(C)C)c(O)c(C(C)(C)C)c1)Sc1cc(C(C)(C)C)c(O)c(C(C)(C)C)c1 [Probucol],scaled lipid accumulation score,,inactive: ≤ 0
same,scaled lipid accumulation score,[5],inactive: ≤ 0
same,scaled lipid accumulation score,[4],inactive: ≤ 0
COC(=O)c1sccc1S(=O)(=O)Nc1ccc(Nc2ccccc2)cc1OC,scaled lipid accumulation score,[4],inactive: ≤ -0.001
"CCCCCC#CCC#CCCCCCCCC(=O)O [9,12-Octadecadiynoic Acid]",scaled lipid accumulation score,[6],inactive: 0.001
Nc1ccc(-c2nc3ccc(-c4nc5ccc(N)cc5[nH]4)cc3[nH]2)cc1,scaled lipid accumulation score,[4],inactive: 0.536 and inactive: 0.097
CS(=O)(=O)CCNCc1ccc(-c2ccc3ncnc(Nc4ccc(OCc5cccc(F)c5)c(Cl)c4)c3c2)o1,scaled lipid accumulation score,[1],inactive: ≤ 0
same,scaled lipid accumulation score,[2],inactive: ≤ 0 and inactive: 0.144
same,scaled lipid accumulation score,[3],inactive: 0.42
same,scaled lipid accumulation score,[4],inactive: 0.429
Nc1c(Br)cc(Br)cc1CN[C@H]1CC[C@H](O)CC1 [Ambroxol],scaled lipid accumulation score,[7],inactive: 0.172
Nc1c(Br)cc(Br)cc1CN[C@H]1CC[C@H](O)CC1 [Ambroxol hydrochloride],scaled lipid accumulation score,,inactive: 0.147
same,scaled lipid accumulation score,[4],inactive: ≤ -0.027 and inactive: 0.435
Nc1c(Br)cc(Br)cc1CN[C@H]1CC[C@H](O)CC1 [Ambroxol HCl],scaled lipid accumulation score,[5],inactive: ≤ 0
same,scaled lipid accumulation score,[4],inactive: 0.443
Oc1ccc(Cl)c2cccnc12 [Cloxyquin],scaled lipid accumulation score,[4],inactive: ≤ 0
OCCN1CCN(CCCN2c3ccccc3Sc3ccc(Cl)cc32)CC1 [Perphenazine],scaled lipid accumulation score,[4],active: 0.916
CCC(=O)c1ccc(O)cc1,scaled lipid accumulation score,[4],inactive: ≤ 0
CC(=O)NCCc1c[nH]c2ccc(O)cc12 [N-Acetyl-5-hydroxytryptamine],scaled lipid accumulation score,[4],inactive: 0.055
CC(C)Oc1ccc(Cc2ccc(NC3=NCCN3)cc2)cc1,scaled lipid accumulation score,[6],inactive: 0.221
O.O.O.O.O=C([O-])CC(O)(CC(=O)[O-])C(=O)[O-].[Li+].[Li+].[Li+] [Lithium citrate],scaled lipid accumulation score,library stock concentration: 9.5 mM,inactive: ≤ 0
same,scaled lipid accumulation score,[4],inactive: 0.016
O=c1ccc2ccc(O)c(O)c2o1 [Daphnetin],scaled lipid accumulation score,[5],inactive: 0.017
same,scaled lipid accumulation score,[4],inactive: ≤ 0 and inactive: 0.193
N#CC(c1ccc(Cl)cc1)c1c(Cl)cc(-n2ncc(=O)[nH]c2=O)cc1Cl (stereo not given) [Diclazuril],scaled lipid accumulation score,[5],inactive: ≤ 0
same,scaled lipid accumulation score,library stock concentration: 4.9 mM,inactive: ≤ -0.006
same,scaled lipid accumulation score,[4],inactive: ≤ 0
"CN1CCN(c2ccc3nc(-c4c(N)c5c(F)cccc5[nH]c4=O)[nH]c3c2)CC1 [Dovitinib (TKI-258, CHIR-258)]",scaled lipid accumulation score,[5],active: 1.25
same,scaled lipid accumulation score,[4],active: 1.13
O=C1Cc2c([nH]c3ccc([N+](=O)[O-])cc23)-c2ccccc2N1 [Alsterpaullone],scaled lipid accumulation score,[5],inactive: ≤ 0
CC(C)(C)C(=O)OCOP(=O)(COCCn1cnc2c(N)ncnc21)OCOC(=O)C(C)(C)C [Adefovir Dipivoxil],scaled lipid accumulation score,[5],inactive: ≤ 0
same,scaled lipid accumulation score,[4],inactive: 0.081
O=S(=O)(c1cccc2c(I)cccc12)N1CCCNCC1,scaled lipid accumulation score,[1],inactive: ≤ -0.001
same,scaled lipid accumulation score,[2],inactive: ≤ -0.001
same,scaled lipid accumulation score,[3],inactive: 0.204
"O=S(=O)(c1cccc2c(I)cccc12)N1CCCNCC1 [ML-7, Hydrochloride]",scaled lipid accumulation score,[5],inactive: 0.25
CCN(CC)CCOCCOC(=O)C(CC)(CC)c1ccccc1.O=C(O)CC(O)(CC(=O)O)C(=O)O,scaled lipid accumulation score,[4],active: 0.866
Nc1nc(N)c2nc(-c3cccc(O)c3)cnc2n1,scaled lipid accumulation score,[5],inactive: ≤ 0
same,scaled lipid accumulation score,[4],inactive: ≤ 0
CCN1C(=O)NC(c2ccccc2)C1=O (stereo not given) [Ethotoin],scaled lipid accumulation score,,inactive: ≤ 0
CN1CCC(=C2c3ccccc3CC(=O)c3sccc32)CC1 [Ketotifen fumarate],scaled lipid accumulation score,,inactive: 0.627
same,scaled lipid accumulation score,library stock concentration: 4.7 mM,inactive: 0.276
same,scaled lipid accumulation score,[4],inactive: 0.172 and inactive: 0.737
CN1CCC(=C2c3ccccc3CC(=O)c3sccc32)CC1 [Ketotifen Fumarate],scaled lipid accumulation score,[5],inactive: ≤ 0
same,scaled lipid accumulation score,[4],inactive: 0.576
CN1CCC(=C2c3ccccc3CC(=O)c3sccc32)CC1,scaled lipid accumulation score,[4],inactive: 0.593

# Source: the supplement of paper PMC9135407
